Laboratory results as given in PubChem BioAssay AID485344 (National Center for Advancing Translational Sciences (NCATS), 2010).
Values joined by “and” are separate entries in the source; they are usually repeats but may differ in a detail not shown here. Equal values may be shown once. Screen size: about 340,000 compounds; about 6,900 (2%) were called active. No stated cut-off is given here; in the data, active means inhibition above about 30%; inactive means below that, where a call was filed. Only a part is listed here, and it is no random draw. Entries without a call were filed so in the source.

These compounds were tested against D(2) dopamine receptor (Homo sapiens) (UniProt P14416) (assay: HTS Assay for Allosteric Antagonists of the Human D2 Dopamine Receptor: Primary Screen for Antagonists). Details: HEK293 TREx D2 cells, calcium flux, dopamine EC80; at 10 µM; stronger effect = higher value.
UniProt P14416, sequence (P14416 whole entry, looked up): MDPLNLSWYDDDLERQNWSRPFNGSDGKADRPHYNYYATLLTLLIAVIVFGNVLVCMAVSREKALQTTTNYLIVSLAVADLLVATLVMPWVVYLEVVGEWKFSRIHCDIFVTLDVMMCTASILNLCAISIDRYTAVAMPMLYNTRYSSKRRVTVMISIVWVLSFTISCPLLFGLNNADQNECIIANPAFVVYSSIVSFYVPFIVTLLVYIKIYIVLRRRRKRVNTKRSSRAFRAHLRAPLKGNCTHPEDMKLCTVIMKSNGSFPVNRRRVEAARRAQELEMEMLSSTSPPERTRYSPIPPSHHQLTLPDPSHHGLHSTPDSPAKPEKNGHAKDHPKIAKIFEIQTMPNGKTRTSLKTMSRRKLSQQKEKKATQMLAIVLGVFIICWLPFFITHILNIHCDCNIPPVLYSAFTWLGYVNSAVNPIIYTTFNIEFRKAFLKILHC
How it was run: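 Read-out: kinetic calcium fluorescence (1 cycle/s) in inducible HEK293 T-REx D2 cells after an EC80 dopamine addition that followed 180 s compound preincubation. Loss of the dopamine response indicates antagonism.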
Further: 0% is about no effect.

| Structure (SMILES) | inhibition |
| --- | --- |
| COc1ccc(NCc2cc3ccc(OC)cc3n(CC(=O)Nc3ccc(C)c(C)c3)c2=O)cc1 | -3.69% |
| O=c1c2sc3ccccc3c2n(Cc2cccc(Cl)c2)c(=O)n1Cc1ccccc1 | -9.77% |
| CCOc1ccc(OCC)c(NC(=O)c2cnn(-c3ccc(F)cc3)c2-n2cccc2)c1 | 9.24% |
| CCc1ccc(-n2nc(C)c3c(C)cc(=O)n(CC(=O)Nc4cc(Cl)ccc4OC)c32)cc1 | -4.24% |
| CCCN1CCN(c2nnc(-n3cccc3C(=O)Nc3ccccc3C(F)(F)F)s2)CC1 | 1.81% |
| COc1cc(NC(=O)NCCc2c(C)nn(C)c2C)cc(OC)c1OC | -7.78% |
| Cc1cccc2c(=O)cc(CSc3ccccc3NC(=O)c3cccc(Cl)c3)[nH]c12 | 8.12% |
| Cc1ccc2nc(CSc3nnc(NC(=O)C(C)C)s3)cc(=O)n2c1 | 19.7% |
| CCCCn1cc2c(c1-c1ccc(Br)cc1)c(=O)n(C)c(=O)n2C | -5.99% |
| CCOc1ccc(-c2cc3c(=O)n(Cc4nc(-c5ccc(OCC)c(OC)c5)oc4C)ccn3n2)cc1Cl | -12.8% |
| CSc1ccc(C2c3c(-c4ccccc4O)n[nH]c3C(=O)N2Cc2ccncc2)cc1 (centres undefined) | 4.61% |
| COc1ccccc1NC(=O)c1ncn(-c2ccccc2)n1 | 15.7% |
| CCCCN1C(=O)c2[nH]nc(-c3ccccc3O)c2C1c1ccc(OCc2ccccc2)c(OC)c1 (centres undefined) | 5.62% |
| Cc1ccccc1NC(=O)c1c(NC(=O)c2ccccc2F)sc2c1CCC(C)C2 (centres undefined) | 11.1% |
| COc1ccc(Cn2ccc3nc(C)c(C(=O)N4CCN(c5ccc(F)cc5)CC4)cc3c2=O)cc1 | 6.68% |
| O=C(O)c1ccnc(Cl)c1 | active: 31.5% |
| Cc1c(C(=O)OC2CCC(C)CC2)[nH]c2c1C(=O)CC(c1ccc(F)cc1)C2 (centres undefined) | 5.09% |
| Cc1ccc(Sc2c(C)nn(C(C)(C)C)c2OC(=O)CC(C)C)cc1 | 2.73% |
| CCOC(=O)c1cccc(NC(=O)CCc2c(C)nn(-c3ccc(N4CCCCC4)nn3)c2C)c1 | -22.2% |
| C=CCNCCOc1ccc(C)cc1[N+](=O)[O-] | active: 45.8% |
| CCCCN(CCCC)CCCNC(=O)c1ccc2nc(N3CCCCC3)sc2c1 | -2.29% |
| Cc1ccc(CNC(=O)CCNS(=O)(=O)c2ccc3c(c2)CCCC(=O)N3)cc1 | 8.26% |
| Cc1nn2c(=O)cc(COc3ccc(/C=C(\C#N)C(=O)Nc4ccccc4C)cc3)nc2s1 | -11.7% |
| COc1ccc(-c2nnn3c2nc(NCCc2ccc(OC)c(OC)c2)c2ccccc23)cc1 | 24.9% |

| Structure (SMILES) | inhibition |
| --- | --- |
| COc1ccc(OC)c(Nc2nc3ccccc3nc2-n2nc(C)cc2C)c1 | 11.7% |
| CCOc1ccc(CNC(=O)c2ccc(CSc3nc4ccncc4n3Cc3ccc(F)cc3)cc2)cc1 | 1.63% |
| COc1cccc(-c2cc(C(=O)Nc3cnn(Cc4ccc(Cl)cc4Cl)c3)no2)c1 | 1.99% |
| O=C(CC1N=C2c3ccccc3N=C(SCc3cccc(F)c3)N2C1=O)NCc1cccs1 (centres undefined) | 5.71% |
| COc1cccc(NC(=O)c2oc3ccccc3c2NC(=O)c2ccccc2C)c1 | -21.1% |
| COC(=O)c1ccccc1NC(=O)CSc1n[nH]c(CC(C)C)n1 | 3.82% |
| Cc1nn(-c2ccccc2)c2nc(C3CC3)cc(C(=O)Nc3cccc(F)c3)c12 | -4.5% |
| CC(C)CCNc1nc2c(-c3ccccc3)nnn2c2ccccc12 | -16% |
| c1ccc(CSc2ncn[nH]2)nc1 | active: 42.1% |
| CCC(=O)Nc1cccc(NC(=O)CSc2nnc(C3CC3)n2C)c1 | active: 30.9% |
| Cc1ccc(C(=O)CSc2nc3cc(C(=O)NC4CCCC4)ccc3c(=O)n2CC2CCCO2)c(C)c1 (centres undefined) | 5.91% |
| Cc1ccc(S(=O)(=O)N(CC(=O)Nc2cccnc2)c2cc(Cl)ccc2C)cc1 | 7.87% |
| CCOC(=O)CN1C(=O)N(c2ccc(C)c(C)c2)S(=O)(=O)c2ccccc21 | -11.8% |
| Cc1ccc(CN2CCC(CNC(=O)c3cnn(-c4ccc(C)cc4)c3C3CCN(C(=O)OC(C)(C)C)CC3)CC2)cc1 | 7.51% |
| Cc1cc(=O)n(CC(=O)Nc2ccc(Cl)c(Cl)c2)c(-n2nc(C)cc2C)n1 | -6.21% |
| Cc1cccc(NC(=O)CCCn2nc(C)c3c(C)n(-c4ccccc4)nc3c2=O)c1C | 3.76% |
| COc1ccc(NC(=O)CC2C(=O)N(c3ccccc3)C(=O)N2CCc2sccc2C)cc1 (centres undefined) | 6.56% |
| CCOc1ccc(CNC(=O)C2CCCN(c3nn4cc(-c5ccc(OC)cc5)nc4s3)C2)cc1 (centres undefined) | -10.9% |
| O=C(Cn1ncc2c3ccccc3n(Cc3ccccc3)c2c1=O)NCc1ccccn1 | 9.91% |
| Cc1ccc(-n2ncc3c(NCCCN(C)C)ncnc32)cc1Cl | 13.2% |
| COc1ccc2c(CNCCc3ccco3)c(C(=O)O)n(Cc3ccc(C)cc3)c2c1 | -7.73% |
| COc1ccc(Nc2ncc3c(n2)CCN(Cc2sccc2C)C3)c(OC)c1 | 14.5% |
| COc1ccc(OC)c(-c2cc(C(=O)Nc3c(C)nn(Cc4ccc(C)cc4)c3C)no2)c1 | -0.153% |
| COc1ccc(C(CNC(=O)c2oc3cc(Br)ccc3c2C)N2CCCCC2)cc1 (centres undefined) | -17.8% and active: 61.5% |

| Structure (SMILES) | inhibition |
| --- | --- |
| O=[N+]([O-])c1ccc(S(=O)(=O)N2CCn3cccc3C2c2ccc(Br)cc2)cc1 (centres undefined) | 10.8% |
| Cc1ccccc1CNC(=O)C1CCCCN1S(=O)(=O)c1ccc(F)cc1 (centres undefined) | -7.54% |
| Cc1ccc(-n2nc(C(=O)N(C)c3ccc(C)c(C)c3)c3c4ccccc4n(C)c3c2=O)cc1 | -0.365% |
| Cc1ccc(NC(=O)c2c(C)oc3ccc(O)c(CN4CCN(Cc5ccccc5)CC4)c23)cc1 | -6.6% |
| COc1ccc(CNC(=O)CCCn2ccc3cc(S(=O)(=O)N4CCCC4)ccc32)cc1 | -1.94% |
| CCOc1cc(-c2nnc(SCC(=O)NC3CCCCC3)nc2-c2ccc(OC)c(OCC)c2)ccc1OC | 5.72% |
| CC(C)NC(=O)C1CCCN(c2ncnc3onc(-c4ccc(F)cc4)c23)C1 (centres undefined) | -1.38% |
| CCOc1ccccc1NC(=O)CCS(=O)(=O)c1ccc2c(c1)oc(=O)n2C | 10.4% |
| COc1cc(C2c3c(-c4c(C)cc(C)cc4O)n[nH]c3C(=O)N2Cc2ccco2)cc(OC)c1OC (centres undefined) | 2.98% |
| CCOC(=O)C(C)Sc1nnc2cc(C)c3ccccc3n12 (centres undefined) | -3% |
| COc1ccc2oc(-c3cccc(NC(=O)c4cc([N+](=O)[O-])ccc4N4CCOCC4)c3)nc2c1 | -4.97% |
| CCOC(=O)C1CCN(C(=O)c2cnn(-c3ccc(F)cc3)c2-n2cccc2)CC1 | 0.835% |
| CCOC(=O)c1[nH]c2c(c1Cc1ccccc1)C(=O)CC(c1ccc(C(C)(C)C)cc1)C2 (centres undefined) | 16.3% |
| Cc1ccc(Cn2c(CN3CCC(C(=O)O)CC3)cc3ccccc32)cc1 | -3.62% |
| CCc1ccc(NC(=O)CSc2nnc(CC)c(CC)n2)cc1 | -1.47% |
| CCN(CC)S(=O)(=O)c1cc(-c2ccc(=O)n(C(C)C(=O)Nc3cccc(C#N)c3)n2)ccc1C (centres undefined) | -1.31% |
| Cc1cc(C)cc(N(CC(=O)Nc2c(C)cc(C)cc2C)S(=O)(=O)c2c(C)nn(C)c2C)c1 | 9.29% |
| COc1ccc(C(=O)Nc2nc3c(s2)Cc2c(Br)ccc(OC)c2-3)cc1OC | 3.46% |
| COc1ccc(-n2c(SCC(=O)N3CCOCC3)nc(O)c(Cc3ccccc3)c2=O)cc1 | active: 42.9% |
| CCN(CC)CCCNC(=O)c1sc2nc3n(c(=O)c2c1C)CCCCC3 | -16.2% |
| CN(CC(=O)Nc1ccc(F)cc1F)S(=O)(=O)c1cccc2nsnc12 | -5.16% |
| COc1ccc(-c2noc(CSc3nnc(Cc4ccccc4)n3-c3ccc(F)cc3)n2)cc1 | 7.95% |
| CCN(CC)CCCNC(=O)c1ccc2c(c1)sc1nc(-c3ccc(C)cc3)cn12 | 20.9% |
| CCOc1c(Cl)cc(CNc2ccc3[nH]c(=O)[nH]c3c2)cc1OC | 9.5% |

| Structure (SMILES) | inhibition |
| --- | --- |
| COc1ccc(NC(=O)NC(C)c2c(-n3cccc3)sc(C)c2C)cc1OC (centres undefined) | -8.96% |
| COc1ccc(OC)c(CN2CCN(CCc3ccccc3)C(CCO)C2)c1 (centres undefined) | active: 44.9% |
| CCCCOc1ccc(C(=O)Nc2cc(-c3cn4cccnc4n3)ccc2OC)cc1 | -18.8% |
| COc1ccc(CCNS(=O)(=O)c2c(C)nc3sc(C)cn3c2=O)cc1OC | -6.71% |
| Cc1cc(Nc2cccc(C(=O)O)c2)n2nc(C)nc2n1 | -27.5% |
| COc1ccc(CCNC(=O)c2ccc3c(c2)N=C(C)c2ccccc2S3)cc1OC | -3.69% |
| COc1ccc(-c2nc3ccccc3o2)cc1NC(=O)c1cccnc1 | -26.1% |
| Cc1cccc(NC(=O)CN(C)S(=O)(=O)c2ccc3c(c2)c(=O)n(C)c(=O)n3C)c1C | -15.7% |
| CCc1cccc(NC(=O)c2ccc3c(c2)N(Cc2cccc(Cl)c2)C(=O)c2ccccc2S3=O)c1 (centres undefined) | 3.42% |
| CCOC(=O)c1c(-c2ccc(C)cc2)csc1NC(=O)c1cc(-c2ccc(OC)cc2)on1 | 13.3% |
| CCOC(=O)C1=C(CC)Nc2ccccc2N=C1NC(=O)Nc1ccccc1OC | active: 50.9% |
| Cc1cccc(N(C)C(=O)CCS(=O)(=O)c2ccc3c(c2)n(C)c(=O)c(=O)n3C)c1 | -3.63% |
| CCN(c1cccc(C)c1)S(=O)(=O)c1cc2c(cc1C)n(C)c(=O)c(=O)n2C | -3.02% |
| CCOc1cccc2sc(NC(=O)c3ccc(S(=O)(=O)N4CCCCC4C)cc3)nc12 (centres undefined) | 19.5% |
| CCOC(=O)c1c(C)[nH]c(C)c1S(=O)(=O)N1CCN(c2cc(Cl)ccc2C)CC1 | -22.1% |
| O=C(c1cc(-c2ccc(Cl)cc2)n[nH]1)N1CCN(S(=O)(=O)c2ccc(Br)s2)CC1 | -1.04% |
| Clc1ccccc1Cn1c(-c2cccs2)nc2ccccc21 | 3.86% |
| CCOc1ccc(NC(=O)c2sc(-n3nc(C)c(Cc4ccc(Cl)cc4)c3C)nc2C)cc1 | -7.95% |
| Cc1nnc(NC(=O)c2nc(SC(C)C)ncc2Cl)s1 | -0.831% |
| CCCCN(C)CCCNC(=O)c1cn(C)c2ccc(S(=O)(=O)N(C)C3CCCCC3)cc2c1=O | active: 34.2% |
| O=C(CN1CCc2cc3c(cc2C1)OCCCO3)Nc1c(F)cccc1F | active: 41.5% |
| Cc1cc(N2CCC(C(=O)Nc3ccc(F)cc3F)CC2)n2nc(C)c(-c3ccc(Cl)cc3)c2n1 | 24% |
